Data taken from the supplement of paper PMC3334620.
Over roughly 33,000 sequences, “E-score (-0.5 to 0.5)” has its median near -0.043; the highest 2% begin near 0.37. This is one part of the list.

Each sequence was assayed against T1, Upc2 (UniProt Q12151) (assay: PBM E-score (8-mer binding enrichment) (E-score (-0.5 to 0.5)); higher = stronger / more preferred TF binding; most listed sequences are background and not binding sites). Conditions: protein concentration: 200 nM; construct: GST-full length.
T1 sequence: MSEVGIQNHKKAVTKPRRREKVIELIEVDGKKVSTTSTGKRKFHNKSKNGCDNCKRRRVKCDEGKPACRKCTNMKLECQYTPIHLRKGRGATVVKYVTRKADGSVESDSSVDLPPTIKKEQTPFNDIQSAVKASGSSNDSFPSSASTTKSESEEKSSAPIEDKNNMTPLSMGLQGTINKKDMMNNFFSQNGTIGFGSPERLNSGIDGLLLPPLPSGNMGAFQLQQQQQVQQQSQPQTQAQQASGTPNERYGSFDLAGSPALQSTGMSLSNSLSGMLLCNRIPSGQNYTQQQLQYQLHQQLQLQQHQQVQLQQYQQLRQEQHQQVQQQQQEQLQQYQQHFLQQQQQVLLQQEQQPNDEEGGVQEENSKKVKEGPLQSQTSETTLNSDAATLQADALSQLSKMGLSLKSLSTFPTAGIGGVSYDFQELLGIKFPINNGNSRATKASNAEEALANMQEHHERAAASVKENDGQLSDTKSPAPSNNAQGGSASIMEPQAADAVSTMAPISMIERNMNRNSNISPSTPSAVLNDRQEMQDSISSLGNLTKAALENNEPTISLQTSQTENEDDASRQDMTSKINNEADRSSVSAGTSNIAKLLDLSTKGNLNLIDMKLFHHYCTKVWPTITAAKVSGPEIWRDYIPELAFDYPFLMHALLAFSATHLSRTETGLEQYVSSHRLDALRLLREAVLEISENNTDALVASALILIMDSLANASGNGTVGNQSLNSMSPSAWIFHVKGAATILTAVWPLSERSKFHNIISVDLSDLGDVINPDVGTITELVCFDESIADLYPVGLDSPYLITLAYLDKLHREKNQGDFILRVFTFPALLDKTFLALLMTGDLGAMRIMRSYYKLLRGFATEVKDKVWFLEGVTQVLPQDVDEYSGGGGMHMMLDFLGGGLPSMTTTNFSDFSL
Outline: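 Masliner-normalised scans of fluorescent anti-GST signal were the basis for scoring. That signal came from GST-tagged yeast transcription factors applied at about 100-200 nM to double-stranded universal all-10-mer Agilent arrays on fresh or once-stripped slides. Each ungapped eight-base word, pooled with its reverse complement, received an E-score from the Universal PBM Analysis Suite.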

Sequence | PBM E-score
ATGACCGA | 0.0751
CTACCCGA | 0.174
AGAGGCGG | -0.151
AAACTCTG | 0.01
CGGGCACC | -0.163
AAAAGTTC | 0.0659
ATTTTCTA | -0.0212
GGTACCAA | -0.107
GTTAGTTA | 0.141
AATAGATG | 0.235
CGTGCTGC | -0.126
GCCGAGCC | -0.204
ACACTCGA | 0.0541
CACTGTCC | 0.0461
AACTGATA | 0.0728
CTGCAACC | -0.247
CATTTGAA | -0.0646
CTCTCCGC | -0.218
GTACTTTA | 0.168
CCCAGCCG | -0.176
AGACGACA | 0.104
ACCATAAG | -0.188

Sequence | PBM E-score
ATATCTGA | -0.0825
GAGATTGA | -0.19
CATTCCCA | -0.0598
ATGCCGCA | -0.0256
ACCTGGAA | 0.0285
CCCAGCTA | -0.152
GCTCATCC | 0.0284
AAACCGCC | -0.138
CGCACGTA | 0.238
ACGCCCCC | -0.0922
CAGACGTA | 0.131
GACCAAGA | -0.121
TTCACAAA | -0.0817
CAGGGATA | -0.0688
ACCATTTA | 0.141
CTGCGGTA | -0.00219
CCAATGCG | -0.0869
GTTGAAGA | 0.0821
TTACCTAA | 0.0272
GAATATTA | 0.0641
GGGCGTAC | 0.246
AGGGACAG | -0.222

Sequence | PBM E-score
CGCCCAAC | -0.0377
CAATGCGA | 0.0657
ACCGCTGG | -0.171
CCCGCGCC | -0.0861
AATTAGCG | 0.121
AGAACGTA | 0.252
ACTTCCAG | -0.167
AGTAGCCG | -0.16
AGAGTAAT | -6e-05
TCATTGCA | -0.0974
TCTCAACA | -0.148
GAACTCGC | 0.132
ATTCTAAG | 0.114
AATGTCTC | -0.21
AACAATGA | -0.00958
CCCTCCCC | -5e-05
GAAGAGGA | -0.255
ACTCTTCT | -0.0617
CTAGCTCC | 0.00104
AGGTCCGA | 0.0905
CCTCAAAC | 0.216
CCACCCCG | 0.0167

Sequence | PBM E-score
AAATGACT | -0.149
GCAGGTTA | -0.0611
TACTGCTA | -0.154
ATCTGCTC | -0.218
AAACACAT | 0.0273
AGGGCCCT | -0.104
TGGAGCAA | -0.0128
AGAATAGC | -0.229
ATCCTCGG | 0.0854
AGTCGTAC | 0.452
CCCAATAA | -0.12
ACGAGGGG | 0.352
GCGTTGAC | -0.0988
ATCAGACG | 0.0965
ACTGCGGG | -0.119
ACAGGTAG | -0.0424
AGCAAGGA | -0.0783
AAAGTCAT | -0.0584
AGCCATTG | -0.0338
AGATCCAC | -0.191
